{"source": "the supplement of paper PMC3334620", "note": "The full ranking holds about 33,000 sequences; the median of “E-score (-0.5 to 0.5)” is about -0.032, and the highest 2% start at about 0.36. The list shows a part of the results."}
{"target": "T1, Sko1 (UniProt Q02100)", "T1 sequence": "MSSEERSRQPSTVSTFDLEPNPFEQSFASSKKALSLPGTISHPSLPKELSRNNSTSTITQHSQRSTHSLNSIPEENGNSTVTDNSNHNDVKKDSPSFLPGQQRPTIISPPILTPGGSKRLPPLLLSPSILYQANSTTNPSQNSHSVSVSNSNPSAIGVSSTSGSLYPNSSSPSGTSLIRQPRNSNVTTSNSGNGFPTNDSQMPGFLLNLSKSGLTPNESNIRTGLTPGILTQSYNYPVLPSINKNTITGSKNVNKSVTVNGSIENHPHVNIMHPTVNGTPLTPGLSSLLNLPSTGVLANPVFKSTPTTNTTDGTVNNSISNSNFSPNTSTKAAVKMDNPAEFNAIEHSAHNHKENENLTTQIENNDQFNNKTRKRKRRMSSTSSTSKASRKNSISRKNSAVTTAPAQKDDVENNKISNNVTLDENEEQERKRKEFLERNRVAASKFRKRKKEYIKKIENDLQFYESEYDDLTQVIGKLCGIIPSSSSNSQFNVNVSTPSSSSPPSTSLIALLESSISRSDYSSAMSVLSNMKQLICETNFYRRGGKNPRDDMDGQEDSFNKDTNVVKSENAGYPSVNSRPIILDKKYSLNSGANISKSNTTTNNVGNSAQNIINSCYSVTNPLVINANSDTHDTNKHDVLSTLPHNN", "assay": "PBM E-score (8-mer binding enrichment) (E-score (-0.5 to 0.5)); higher = stronger / more preferred TF binding; most listed sequences are background and not binding sites", "conditions": "protein concentration: 200 nM; construct: GST-full length", "method_in_brief": "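Yeast transcription factors, full-length or as DNA-binding domains, were expressed with a GST tag using PURExpress in vitro transcription/translation. At about 100-200 nM they were applied to universal all-10-mer Agilent arrays, double-stranded by primer extension on fresh or once-stripped slides. Fluorescent anti-GST detected bound protein, and masliner normalised the scans. E-scores for ungapped eight-base words, pooled with reverse complements, came from the Universal PBM Analysis Suite.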"}
{"sequence": "CGCAGCTC", "PBM E-score": -0.0758}
{"sequence": "CCTATTGC", "PBM E-score": -0.142}
{"sequence": "AAATACCT", "PBM E-score": 0.0741}
{"sequence": "GCATGGGA", "PBM E-score": -0.192}
{"sequence": "AAATTCTC", "PBM E-score": -0.0401}
{"sequence": "CGACCTGA", "PBM E-score": -0.0964}
{"sequence": "GATCCCAA", "PBM E-score": -0.134}
{"sequence": "ACACTGGA", "PBM E-score": -0.0273}
{"sequence": "GCTGTATA", "PBM E-score": 0.0331}
{"sequence": "AACGCCGT", "PBM E-score": -0.0754}
{"sequence": "AATCAGCG", "PBM E-score": 0.14}
{"sequence": "GACATACA", "PBM E-score": 0.277}
{"sequence": "ACTAACTG", "PBM E-score": 0.0013}
{"sequence": "CATGAGGG", "PBM E-score": -0.0274}
{"sequence": "GCCAGAGA", "PBM E-score": -0.105}
{"sequence": "CATTTGTC", "PBM E-score": 0.0524}
{"sequence": "GTAGAGGA", "PBM E-score": -0.194}
{"sequence": "ACCCTCGG", "PBM E-score": -0.289}
{"sequence": "CATACTGA", "PBM E-score": 0.175}
{"sequence": "CCCTTGAG", "PBM E-score": -0.24}
{"sequence": "GCCACTGA", "PBM E-score": -0.031}
{"sequence": "ATAACTTC", "PBM E-score": 0.0712}
{"sequence": "GAAGGTTA", "PBM E-score": 0.0047}
{"sequence": "AAGGAGGA", "PBM E-score": -0.0677}
{"sequence": "GAGCCTGA", "PBM E-score": -0.16}
{"sequence": "GGAAAATA", "PBM E-score": 0.074}
{"sequence": "CCATAACG", "PBM E-score": 0.296}
{"sequence": "AACGTCTA", "PBM E-score": 0.239}
{"sequence": "ACCGCGAT", "PBM E-score": 0.106}
{"sequence": "AGGCGATC", "PBM E-score": 0.105}
{"sequence": "AAGATCCC", "PBM E-score": -0.041}
{"sequence": "GGATGAGA", "PBM E-score": -0.121}
{"sequence": "CGTGGTGC", "PBM E-score": 0.147}
{"sequence": "ATTGGTGA", "PBM E-score": 0.0106}
{"sequence": "ATTACACA", "PBM E-score": 0.283}
{"sequence": "GAGTTCAA", "PBM E-score": 0.142}
{"sequence": "CCACATGC", "PBM E-score": 0.0567}
{"sequence": "ACTTAGGG", "PBM E-score": -0.172}
{"sequence": "AAAGATTG", "PBM E-score": -0.183}
{"sequence": "CGGTTTGC", "PBM E-score": -0.12}
{"sequence": "GGGCGGCA", "PBM E-score": -0.339}
{"sequence": "CTGAATCC", "PBM E-score": 0.0664}
{"sequence": "AGCCTCAG", "PBM E-score": -0.235}
{"sequence": "AGGAATCG", "PBM E-score": -0.0809}
{"sequence": "CCGAGCGG", "PBM E-score": -0.267}
{"sequence": "CATGGTGC", "PBM E-score": -0.11}
{"sequence": "GTCATTTA", "PBM E-score": 0.353}
{"sequence": "AAGTTTAG", "PBM E-score": 0.116}
{"sequence": "CACCGCGC", "PBM E-score": -0.039}
{"sequence": "AGGGTTTG", "PBM E-score": -0.161}
{"sequence": "ATCACACG", "PBM E-score": 0.203}
{"sequence": "CGGTTTGA", "PBM E-score": -0.0856}
{"sequence": "ATTCTGAA", "PBM E-score": 0.0223}
{"sequence": "CAGGAGCA", "PBM E-score": -0.202}
{"sequence": "CATCGTCC", "PBM E-score": 0.0258}
{"sequence": "GCGGCCGA", "PBM E-score": -0.107}
{"sequence": "AAGACTGC", "PBM E-score": -0.0959}
{"sequence": "ACACAGCA", "PBM E-score": 0.0577}
{"sequence": "AGCGACTG", "PBM E-score": 0.0636}
{"sequence": "TAAATAGA", "PBM E-score": -0.00812}
{"sequence": "AACAGACA", "PBM E-score": -0.00885}
{"sequence": "AGATGCAA", "PBM E-score": -0.0244}
{"sequence": "AACAGCAG", "PBM E-score": -0.164}
{"sequence": "CAATTCCG", "PBM E-score": -0.184}
{"sequence": "GACAGACC", "PBM E-score": -0.103}
{"sequence": "AGATTCTC", "PBM E-score": -0.0717}
{"sequence": "ATCACGAC", "PBM E-score": 0.148}
{"sequence": "GCACTTGA", "PBM E-score": 0.14}
{"sequence": "CGTATCAA", "PBM E-score": 0.261}
{"sequence": "AACAATAG", "PBM E-score": -0.138}
{"sequence": "CTGATCAG", "PBM E-score": 0.00719}
{"sequence": "TGATTCCA", "PBM E-score": -0.0363}
{"sequence": "ACACCTTA", "PBM E-score": 0.226}
{"sequence": "ATGCGCTC", "PBM E-score": -0.0166}
{"sequence": "CACATGTC", "PBM E-score": 0.0673}
{"sequence": "ACATAAGA", "PBM E-score": 0.232}
{"sequence": "ATTGTCGA", "PBM E-score": 0.0238}
{"sequence": "AATGCAGG", "PBM E-score": -0.144}
{"sequence": "ATGCGCCG", "PBM E-score": -0.0817}
{"sequence": "AGTGCGCA", "PBM E-score": 0.0799}
{"sequence": "CAGGAGCC", "PBM E-score": -0.259}
{"sequence": "ACTACGAT", "PBM E-score": 0.194}
{"sequence": "GTGGCACA", "PBM E-score": -0.00841}
{"sequence": "AGGTTGGC", "PBM E-score": -0.171}
{"sequence": "AGTGTACC", "PBM E-score": -0.188}
{"sequence": "GCCGGCGC", "PBM E-score": -0.245}
{"sequence": "CTGGTTCC", "PBM E-score": -0.157}
{"sequence": "CTTTTTTC", "PBM E-score": 0.0359}
{"sequence": "CCGATGAA", "PBM E-score": -0.198}
{"sequence": "TAGCCCGA", "PBM E-score": -0.201}
{"sequence": "AGAGTCCT", "PBM E-score": -0.326}
{"sequence": "GATCCTGC", "PBM E-score": -0.0553}
{"sequence": "CACTTATG", "PBM E-score": 0.0701}
{"sequence": "GACCCAGA", "PBM E-score": -0.16}
